Laboratory results published in publication PMC3538594 (PLoS ONE, 2013).
Where two headings read alike, the source gives them in different places.

Key:
[1] = target: T1, wt-rcII (Thermus thermophilus, UniProt Q5SIC0); experiment: biochemical
[2] = target: T2, rcII-His8-SdhB (Thermus thermophilus, UniProt Q5SIC0); experiment: biochemical
[3] = target: Native complex II (Thermus thermophilus, UniProt Q5SIB8+Q5SIB9+Q5SIC1); conditions: 30°C, cited from earlier work
[4] = target: T3, rcII-SdhB-His6 (Thermus thermophilus, UniProt Q5SIC0); experiment: biochemical
[5] = target: T3, rcII-SdhB-His6; conditions: read-out: cKi (competitive inhibition); 30°C
[6] = target: T2, rcII-His8-SdhB; conditions: read-out: cKi (competitive inhibition); 30°C
[7] = target: T1, wt-rcII; conditions: read-out: cKi (competitive inhibition); 30°C
[8] = target: T2, rcII-His8-SdhB; experiment: succinate dehydrogenase activity, DCPIP/1,4-NQ set up; type: biochemical, T. thermophilus; conditions: 30°C; read-out: nKi (non-competitive inhibition)
[9] = target: T3, rcII-SdhB-His6; experiment: as above; type: biochemical, T. thermophilus; conditions: 30°C; read-out: nKi (non-competitive inhibition)
[10] = read-out: cKi (competitive inhibition)

| Structure (SMILES) | Ki [1] [µM] | Ki [2] [µM] | Ki ([3]; read-out: iKiapp (irreversible inhibition)) [µM] | Ki [4] [µM] | Ki [3, 10] [µM] | Ki [5] [µM] | Ki [6] [µM] | Ki [7] [µM] | Ki [8] [µM] | Ki [9] [µM] |
| --- | --- | --- | --- | --- | --- | --- | --- | --- | --- | --- |
| O=C(O)CC[N+](=O)[O-] [3-NP, 3-Nitropropionic acid] | 200 | 270 | 230 | 290 |  |  |  |  |  |  |
| O=C(O)CC(=O)C(=O)O [Oxaloacetate] | 51 | 85 |  | 21 | 17 |  |  |  |  |  |
| O=C(O)CC(=O)O [Malonate, malonate] |  |  |  |  | 40 | 58 | 55 | 65 |  |  |
| CCCCCCCCCc1cc(O)c2ccccc2[n+]1[O-] [NQNO] |  |  |  |  |  |  |  |  | 77 | 80 |
